The campaign covered roughly 310,000 compounds. About 14,000 (4.5%) showed an effect of 50% or more. The effect is printed as a negative number. The list shows a part of the results.
These compounds were tested against human ether-à-go-go-related gene (hERG) potassium channel (human, UniProt Q12809) (assay: primary screen, population patch clamp on CHO cells stably expressing hERG).
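Note: peak tail current of the secondary pulse compared with the same well before compound.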

Chain of human ether-à-go-go-related gene (hERG) potassium channel (Q12809 whole entry, looked up): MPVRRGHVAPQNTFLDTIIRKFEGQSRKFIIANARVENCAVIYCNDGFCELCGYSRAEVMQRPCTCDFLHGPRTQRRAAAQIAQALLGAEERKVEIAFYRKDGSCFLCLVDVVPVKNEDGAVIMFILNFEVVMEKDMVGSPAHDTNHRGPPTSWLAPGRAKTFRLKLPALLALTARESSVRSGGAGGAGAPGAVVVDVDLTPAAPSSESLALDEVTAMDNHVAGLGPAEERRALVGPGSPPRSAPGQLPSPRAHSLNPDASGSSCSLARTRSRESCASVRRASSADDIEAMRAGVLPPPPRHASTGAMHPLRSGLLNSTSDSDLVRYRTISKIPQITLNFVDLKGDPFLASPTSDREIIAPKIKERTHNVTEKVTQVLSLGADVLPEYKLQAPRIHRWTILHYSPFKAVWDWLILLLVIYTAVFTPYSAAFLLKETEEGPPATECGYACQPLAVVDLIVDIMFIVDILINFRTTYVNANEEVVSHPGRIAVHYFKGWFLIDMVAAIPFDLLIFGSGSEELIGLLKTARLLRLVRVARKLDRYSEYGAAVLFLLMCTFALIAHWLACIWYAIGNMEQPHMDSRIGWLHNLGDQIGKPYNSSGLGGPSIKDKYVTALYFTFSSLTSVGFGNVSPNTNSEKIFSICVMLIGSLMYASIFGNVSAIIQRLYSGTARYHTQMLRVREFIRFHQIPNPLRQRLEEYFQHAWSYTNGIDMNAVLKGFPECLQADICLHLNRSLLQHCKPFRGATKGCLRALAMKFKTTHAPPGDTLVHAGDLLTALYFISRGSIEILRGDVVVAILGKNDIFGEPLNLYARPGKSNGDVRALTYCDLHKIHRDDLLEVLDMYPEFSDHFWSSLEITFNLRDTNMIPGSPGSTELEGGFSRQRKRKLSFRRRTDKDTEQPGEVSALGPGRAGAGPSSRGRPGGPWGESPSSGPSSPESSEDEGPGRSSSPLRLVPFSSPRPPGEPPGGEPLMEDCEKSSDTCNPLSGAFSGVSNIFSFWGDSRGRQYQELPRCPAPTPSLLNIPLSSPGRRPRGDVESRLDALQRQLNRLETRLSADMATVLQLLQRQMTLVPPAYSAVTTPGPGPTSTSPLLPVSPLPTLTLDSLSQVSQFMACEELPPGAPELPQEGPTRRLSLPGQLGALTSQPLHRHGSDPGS

Compound	hERG current change (%, negative = inhibition) at 10uM [%]
CC1Sc2n(c3ccccc3[n+]2C)N=C1c1ccccc1.[Br-] (stereo not drawn)	-49.6
Cc1sc2nc(C)n(/N=C/c3ccccc3)c(=O)c2c1C	-14.1
Cn1c(=O)[nH]c(=O)c2c1nc1n2CCCN1Cc1ccccc1	1.21
COc1cc2c(cc1NC(=O)C(C)Sc1cccc[n+]1[O-])oc1ccccc12 (stereo not drawn)	-38.5
COc1cc(/C=N/NC(=S)NCCN2CCOCC2)cc(OC)c1O	12.7
Cc1nccn1CC(=O)c1ccc(O)c(O)c1.Cl	12.3
CCN(CC)S(=O)(=O)c1cccc(C(=O)N/N=C/c2ccccn2)c1	12.8
COc1cc(NC(=O)C2CCCN(c3ncnc4c3nc3n4CCCCC3)C2)cc(OC)c1OC (stereo not drawn)	-6.46
CCC(CO)NC(=O)c1cccc(S(=O)(=O)N2c3ccccc3CC2C)c1 (stereo not drawn)	2.65
CCOc1ccc(C(=O)C[n+]2ccc(C(=O)NCc3ccccc3)cc2)cc1.[Br-]	-36
Cc1ccc(C(=O)N/C(=C/c2ccc(Cl)cc2)C(=O)Nc2cccc(C(=O)O)c2)cc1	4.27
OCCC1CN(Cc2cccn2-c2nccs2)CCN1Cc1ccccc1 (stereo not drawn)	-69.3
COc1ccc(F)c(CN(C)CC2CCCN(CCc3ccc(F)cc3)C2)c1 (stereo not drawn)	-73.4
C=CCNC(=O)NC(=O)COC(=O)C(C)Oc1ccc(Cl)cc1Cl (stereo not drawn)	20.6
O=C(CCCCCNc1nc(=S)[nH]c2ccccc12)N1CCN(c2ccccn2)CC1	-16.3
O=C(c1ccc(Br)o1)N1CCN(CCOc2ccccc2)CC1	-54.1
N#C/C(=C/c1ccc(Br)o1)C(N)=S	5.99
CC(SC1=NCCS1)C(=O)Nc1nnc(-c2ccc(F)cc2)s1 (stereo not drawn)	2.34
CCC(C)n1c(=O)c2sccc2n2c(CCCC(=O)N3CCC(C(N)=O)CC3)nnc12 (stereo not drawn)	5.89
O=C(Nc1ccc2[nH]ncc2c1)c1ccccc1	9.74
COc1ccc(N2C(=S)NC(C)(C)CC2(C)c2ccc(OC(C)=O)cc2OC(C)=O)cc1 (stereo not drawn)	6.26
CN1c2cccc3cccc(c23)N(C)C1(C)C	-7.83
CCOC(=O)C1CCN(C(=O)CCS(=O)(=O)c2ccc3c(c2)n(C)c(=O)c(=O)n3C)CC1	10.3

Compound	hERG current change (%, negative = inhibition) at 10uM [%]
Cc1cc(NC(=O)c2cc(F)c(F)cc2Cl)no1	15
CCOC(=O)C1(Cc2cccc(Cl)c2)CCCN(C(=O)c2cc(C)n(C)n2)C1 (stereo not drawn)	-10.6
COc1ccc(OCCCC(=O)OCC(=O)Nc2sccc2C(N)=O)cc1	-1.66
CCOC(=O)c1[nH]c(C)c(C(=O)OCC(=O)N(CC)C2CCS(=O)(=O)C2)c1C (stereo not drawn)	-8.58
CC1CCCC(NC(=O)c2ccc3c(=O)n(CC4CCCO4)c(=O)[nH]c3c2)C1C (stereo not drawn)	-1.57
Cc1cc2cc(CN(Cc3ccc4c(c3)OCO4)Cc3nnnn3C3CCCC3)c(=O)[nH]c2cc1C	-5.19
CC1CN(CCc2ccccc2)C(C)C/C1=N/O (stereo not drawn)	4.75
O=C(c1cccs1)N(C(=O)c1cccs1)c1ccc(Br)cn1	-16
COc1cccc(-n2cnc3c(sc4nc(N5CCOCC5)c5c(c43)CCCC5)c2=O)c1	5.92
CCOC(=O)c1sc2nc(C)c([N+](=O)[O-])c(COC)c2c1N	-3.52
O=C(c1cccc(S(=O)(=O)N2CCN(c3ccc(F)cc3)CC2)c1)N1CCCCCCC1	-45.2
CCc1nc2oc3cc(OC)ccc3c(=O)c2c(=O)n1Cc1ccco1	-48.4
C/C(Nc1ccccc1C(F)(F)F)=C1/CCOC1=O	0.778
COc1ccc(C(=O)Nc2cccc(-c3ccc(N4CCOCC4)nn3)c2)cc1	-37.8
CCOc1ccc(S(=O)(=O)Nc2ccc(F)cc2)c(C)c1C	2.56
Cc1c(Cc2ccccc2)c(=O)oc2cc(OCC(=O)NCC3CCC(C(=O)O)CC3)ccc12 (stereo not drawn)	18.2
COCCCNC(=S)N(CCO)Cc1cc2cc3c(cc2[nH]c1=O)OCO3	0.0736
Cc1ccc(C(=O)Nc2c(C)n(C)n(-c3ccccc3)c2=O)cc1	18.5
Cc1ccc(CNC(=O)C2CCC(=O)N2Cc2ccccc2Cl)cc1 (stereo not drawn)	2.52
Cc1ccnc(NC(=O)COc2ccc(Cl)cc2)n1	10.1
CCC(C)c1ccccc1OCCCCN1CCCC1 (stereo not drawn)	-48.8
CC12CCC(c3c(C(=O)Nc4nccs4)nn(-c4ccccc4)c31)C2(C)C (stereo not drawn)	-2.19

From publication PMC4336329 (PLoS ONE, 2015)
